# Assay results from the supplement of paper PMC10037445.
# Over roughly 2,900 compounds, “IRF Lucia reporter activity, fold change vs agonist alone” has its median near 0.9; the highest 2% begin near 2.8. The list shows a part of the results.
# Tests used:
# [1] = test system: RAW-Dual; assay: IRF Lucia reporter activity, fold change vs agonist alone; cytotoxicity flag (confluency mask): cytotoxic (confluency <70% of control); higher = enhanced IRF activity
# Summary of the method: (§1)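 RAW-Dual macrophages were seeded in DMEM at 50,000 cells/well in 384-well plates, given 50 nL of library stock by pin tool, and given a PRR agonist 1 h later. Plates were held at 37 °C, 5% CO2 for 20 hours, after which supernatant was read for IRF by QuantiLuc luminescence and for NF-κB by QuantiBlue absorbance at 620 nm. Reporter activity is expressed as fold change over wells that received agonist alone. A well was called cytotoxic when IncuCyte confluency fell below 70% of agonist controls in both mask sets.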
# [2] = test system: RAW-Dual; assay: IRF Lucia reporter activity, fold change vs agonist alone; higher = enhanced IRF activity; settings: agonist: MPLA (TLR4) […]
# Summary of the method: as §1
# [3] = test system: RAW-Dual; assay: IRF Lucia reporter activity, fold change vs agonist alone; cytotoxicity flag (confluency mask): not cytotoxic; higher = enhanced IRF activity
# Summary of the method: as §1
# [4] = agonist: 3'3'-cGAMP (STING) 10 ug/mL
# [5] = library stock concentration (final ~1000-fold dilution): 10 mM, cytotoxicity flag (confluency mask): not cytotoxic
smiles,measurement,setting,value
CNCCCN1c2ccccc2CCc2ccccc21.Cl (library stock concentration (final ~1000-fold dilution): 10 mM),IRF Lucia reporter activity,[1]; [4],0.427
same,IRF Lucia reporter activity,[1]; agonist: LPS (TLR4) 0.1 ug/mL,1.52
CNCCCN1c2ccccc2CCc2ccccc21.Cl,IRF Lucia reporter activity,"[2]; library stock concentration (final ~1000-fold dilution): 10 mM, cytotoxicity flag (confluency mask): cytotoxic (confluency <70% of control)",1.27
O=C(O)CCn1c2c(c3ccccc31)CC(NS(=O)(=O)c1ccc(F)cc1)CC2 (centres undefined) (library stock concentration (final ~1000-fold dilution): 10 mM),IRF Lucia reporter activity,[3]; [4],1.01
same,IRF Lucia reporter activity,[3]; agonist: LPS (TLR4) 0.1 ug/mL,1.38
O=C(O)CCn1c2c(c3ccccc31)CC(NS(=O)(=O)c1ccc(F)cc1)CC2 (centres undefined),IRF Lucia reporter activity,[2]; [5],1.09
O=C(Nc1ccc2[nH]nc(-c3ccc4[nH]ccc4c3)c2c1)c1c(Cl)cccc1Cl (library stock concentration (final ~1000-fold dilution): 10 mM),IRF Lucia reporter activity,[1]; [4],0.0218
same,IRF Lucia reporter activity,[1]; agonist: LPS (TLR4) 0.1 ug/mL,0.0379
COc1ccc2c(c1)C1(CC1c1ccc3c(/C=C/c4ccc(CN5CC(C)OC(C)C5)cc4)n[nH]c3c1)C(=O)N2 (centres undefined) (library stock concentration (final ~1000-fold dilution): 10 mM),IRF Lucia reporter activity,[3]; [4],0.514
same,IRF Lucia reporter activity,[3]; agonist: LPS (TLR4) 0.1 ug/mL,1.21
COc1ccc2c(c1)C1(CC1c1ccc3c(/C=C/c4ccc(CN5CC(C)OC(C)C5)cc4)n[nH]c3c1)C(=O)N2 (centres undefined),IRF Lucia reporter activity,[2]; [5],1.06
CC(C)CN(CC(O)C(Cc1ccccc1)NC(=O)OC1COC2OCCC12)S(=O)(=O)c1ccc(N)cc1 (centres undefined),IRF Lucia reporter activity,[2]; [5],1.14
CC(C)CN(CC(O)C(Cc1ccccc1)NC(=O)OC1COC2OCCC12)S(=O)(=O)c1ccc(N)cc1 (centres undefined) (library stock concentration (final ~1000-fold dilution): 10 mM),IRF Lucia reporter activity,[3]; [4],0.959
same,IRF Lucia reporter activity,[3]; agonist: LPS (TLR4) 0.1 ug/mL,1.39
OCCc1ccc(O)cc1 (library stock concentration (final ~1000-fold dilution): 10 mM),IRF Lucia reporter activity,[3]; [4],1.19
same,IRF Lucia reporter activity,[3]; agonist: LPS (TLR4) 0.1 ug/mL,1.29
N=C(N)NCCCC1NC(=O)C(CCCCN)NC(=O)C(Cc2ccccc2)NC(=O)C(CC(=O)O)NC(=O)CNC1=O.O=C(O)C(F)(F)F (centres undefined) (library stock concentration (final ~1000-fold dilution): 10 mM),IRF Lucia reporter activity,[3]; [4],1.28
same,IRF Lucia reporter activity,[3]; agonist: LPS (TLR4) 0.1 ug/mL,1.07
Cl.N=C(N)c1ccccc1,IRF Lucia reporter activity,[2]; [5],1.11
Cl.N=C(N)c1ccccc1 (library stock concentration (final ~1000-fold dilution): 10 mM),IRF Lucia reporter activity,[3]; [4],1.02
same,IRF Lucia reporter activity,[3]; agonist: LPS (TLR4) 0.1 ug/mL,1.53
O=C1C(Cc2ccc(O)cc2)N2C(=O)CCN(C(=O)NCc3ccccc3)C2CN1Cc1cccc2ccccc12 (centres undefined) (library stock concentration (final ~1000-fold dilution): 10 mM),IRF Lucia reporter activity,[3]; [4],0.604
same,IRF Lucia reporter activity,[3]; agonist: LPS (TLR4) 0.1 ug/mL,0.762
O=C1C(Cc2ccc(O)cc2)N2C(=O)CCN(C(=O)NCc3ccccc3)C2CN1Cc1cccc2ccccc12 (centres undefined),IRF Lucia reporter activity,[2]; [5],0.779
CCN(c1cc(-c2ccc(CN3CCOCC3)cc2)cc(C(=O)NCc2c(C)cc(C)[nH]c2=O)c1C)C1CCOCC1 (library stock concentration (final ~1000-fold dilution): 2 mM),IRF Lucia reporter activity,[3]; [4],0.921
same,IRF Lucia reporter activity,[3]; agonist: LPS (TLR4) 0.1 ug/mL,0.841
CCN(c1cc(-c2ccc(CN3CCOCC3)cc2)cc(C(=O)NCc2c(C)cc(C)[nH]c2=O)c1C)C1CCOCC1,IRF Lucia reporter activity,"[2]; library stock concentration (final ~1000-fold dilution): 2 mM, cytotoxicity flag (confluency mask): not cytotoxic",0.949
NC(N)=O (library stock concentration (final ~1000-fold dilution): 10 mM),IRF Lucia reporter activity,[3]; [4],0.991
same,IRF Lucia reporter activity,[3]; agonist: LPS (TLR4) 0.1 ug/mL,1.21
NC(N)=O,IRF Lucia reporter activity,[2]; [5],1.05
CC(C)CCNC(=O)C(CC(C)C)NC(=O)C1OC1C(=O)O (centres undefined) (library stock concentration (final ~1000-fold dilution): 10 mM),IRF Lucia reporter activity,[3]; [4],1.19
same,IRF Lucia reporter activity,[3]; agonist: LPS (TLR4) 0.1 ug/mL,0.945
CC(C)CCNC(=O)C(CC(C)C)NC(=O)C1OC1C(=O)O (centres undefined),IRF Lucia reporter activity,[2]; [5],1.08
Cl.NC(CO)C(=O)NNCc1ccc(O)c(O)c1O (centres undefined),IRF Lucia reporter activity,[2]; [5],0.97
Cl.NC(CO)C(=O)NNCc1ccc(O)c(O)c1O (centres undefined) (library stock concentration (final ~1000-fold dilution): 10 mM),IRF Lucia reporter activity,[3]; [4],1.06
same,IRF Lucia reporter activity,[3]; agonist: LPS (TLR4) 0.1 ug/mL,0.937
O=C(NCC(=O)N1CCCC1)Nc1ccc2cnccc2c1 (library stock concentration (final ~1000-fold dilution): 10 mM),IRF Lucia reporter activity,[3]; [4],0.91
same,IRF Lucia reporter activity,[3]; agonist: LPS (TLR4) 0.1 ug/mL,0.742
CCN(C(=O)c1c(O)n(C)c2cccc(Cl)c2c1=O)c1ccccc1 (library stock concentration (final ~1000-fold dilution): 10 mM),IRF Lucia reporter activity,[3]; [4],0.934
same,IRF Lucia reporter activity,[3]; agonist: LPS (TLR4) 0.1 ug/mL,0.798
CS(=O)(=O)Nc1ccc([N+](=O)[O-])cc1OC1CCCCC1 (library stock concentration (final ~1000-fold dilution): 10 mM),IRF Lucia reporter activity,[3]; [4],1.2
same,IRF Lucia reporter activity,[3]; agonist: LPS (TLR4) 0.1 ug/mL,1.21
Nc1c(Br)cc(Br)cc1CNC1CCC(O)CC1 (centres undefined) (library stock concentration (final ~1000-fold dilution): 10 mM),IRF Lucia reporter activity,[3]; [4],0.921
same,IRF Lucia reporter activity,[3]; agonist: LPS (TLR4) 0.1 ug/mL,0.884
